Test results reported in the supplement of paper PMC11876631.
Numbering of substitutions follows the chain as printed. Numbers in names are those of the source. ± gives the standard deviation of the averaged measurements. Laboratory Escherichia coli strains with one amino-acid change in an essential protein, pooled on minimal glucose agar with carbenicillin or gentamicin at twice the control MIC (plus kanamycin and chloramphenicol for the plasmids), 48 h. Fold change of barcode share against drug-free plates; higher = less susceptible. Active = above 20 in both replicates (the paper's putatively resistant). '<' = one read or none on drug, '>' = one read or none on a drug-free plate. Shares are relative, so most strains fall below 1 when a few take over. Listed are strains with at least 15 reads on both drug-free plates, and hits; most hits rest on fewer reference reads. Replicate rank correlation about 0.5. Edits are read from barcodes.

Molecular target: Escherichia coli (laboratory strain)
Experiment: barcode share on antibiotic plates over drug-free plates; higher = less susceptible
Description: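 A pool of E. coli strains, each edited to carry one amino-acid change in an essential protein, was grown for 48 h on minimal glucose agar with or without antibiotic; strain barcodes were sequenced; mean of two replicates.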

[1] = antibiotic: carbenicillin, 2× MIC (3.1 µg/mL)
[2] = antibiotic: gentamicin, 2× MIC (MIC 0.45 µg/mL)

B1: purK I213A (protein)
chain: MKQVCVLGNGQLGRMLRQAGEPLGIAVWPVGLDAEPAAVPFQQSVITAEIERWPETALTRELARHPAFVNRDVFPIIADRLTQKQLFDKLHLPTAPWQLLAERSEWPAVFDRLGELAIVKRRTGGYDGRGQWRLRANETEQLPAECYGECIVEQGINFSGEVSLVGARGFDGSTVFYPLTHNLHQDGILRTSVAFPQANAQQQAQAEEMLSAAMQELGYVGVMAMECFVTPQGLLINELAPRVHNSGHWTQNGASISQFELHLRAITDLPLPQPVVNNPSVMINLIGSDVNYDWLKLPLVHLHWYDKEVRPGRKVGHLNLTDSDTSRLTATLEALIPLLPPEYASGVIWAQSKFG
fold change of barcode share [1]: 0.371 ± 0.23 | fold change of barcode share [2]: 0.00696 ± 0.0074

B2: purK V6A (protein)
chain: B1 chain with V6A, A213I
fold change of barcode share [1]: 0.296 ± 0.013 | fold change of barcode share [2]: < 0.0199

B3: purK I213P (protein)
chain: B1 chain with A213P
fold change of barcode share [1]: 0.945 ± 0.16 | fold change of barcode share [2]: 0.0244 ± 0.018

B4: purK I213W (protein)
chain: B1 chain with A213W
fold change of barcode share [1]: 0.508 ± 0.072 | fold change of barcode share [2]: 0.0147 ± 0.0046

B5: purK I213Q (protein)
chain: B1 chain with A213Q
fold change of barcode share [1]: 0.483 ± 0.035 | fold change of barcode share [2]: < 0.00206

B6: purK L239D (protein)
chain: B1 chain with A213I, L239D
fold change of barcode share [1]: 0.541 ± 0.21

B7: purK L239A (protein)
chain: B1 chain with A213I, L239A
fold change of barcode share [1]: 0.228 ± 0.1 | fold change of barcode share [2]: 0.0102 ± 0.0082
